Where “and” joins values, the source holds several entries; their conditions need not be identical. Equal entries are not always repeated. In all, about 420,000 compounds went through this assay and about 50,000 (12%) were called active. Inconclusive means that the source gave no clear call. Such entries were picked first, then a sample of the others. Calls come from the whole dose curve; as a rule, active = well fitted inhibition curve with a large enough effect; inconclusive = small, poorly fitted or top-dose-only effect; inactive = flat fitted curve, though single readings scatter. A potency beside an inconclusive call is a rough fit, not a confirmed value. Some structures have more than one record in an assay (separate samples or runs), and their calls can disagree.
Test: qHTS for Inhibitors of human tyrosyl-DNA phosphodiesterase 1 (TDP1): qHTS in cells in presence of CPT; note: nearly all actives have a fitted effect of over 55% in size
Settings: chicken DT40 Tdp1-/-;hTDP1 cells + 20 nM CPT, ATP luminescence, 48 h; activity change, negative = growth inhibition: at 46.2 µM (top of the series)
Outline: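 Chicken DT40 Tdp1-/- cells complemented with human TDP1, 400 cells/well, exposed to compounds plus 20 nM camptothecin for at least 48 h at 37 C; viability read as ATP content by CellTiter-Glo luminescence.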
% is set by controls: 0 for no effect and ±100 for the full control effect; potency is the fitted concentration of half-maximal effect; tags give direction and shape of the fitted curve.

SMILES | Potency | activity change, negative = growth inhibition
Cc1ccc(SCCNS(=O)(=O)c2ccc(F)cc2)cc1 | inconclusive: 20.6 µM [inhibitor, partial curve] | 
Cc1coc2cc3oc(=O)c(CCC(=O)NCc4ccccn4)c(C)c3cc12 | inconclusive: 18.4 µM [inhibitor, single point] | 
CCn1c(=O)c(C(=O)NCCc2ccc(Cl)cc2)c(O)c2ccccc21 | inconclusive: 29.1 µM [inhibitor, single point] | 
CC(C)=CCN1CCN(Cc2cc(CC(C)C)n[nH]2)CC1CCO (stereo not given) | inactive | 
CCc1nc(Nc2ccc(O)cc2)c2oc3ccccc3c2n1 | inconclusive: 25.9 µM [inhibitor, single point] | 
Cc1ccc(NC(=O)c2nc(S(=O)(=O)Cc3cccc(C)c3)ncc2Cl)cc1 | active: 0.651 µM | 
COC(=O)[C@@]12CCCCN1[C@H](c1ccc(SC3CCCCC3)cc1)[C@@H]1C(=O)N(C)C(=O)[C@@H]12 | inconclusive: 13 µM [inhibitor, partial curve] | 
O=C(COC(=O)CCN1C(=O)C2CC=CCC2C1=O)NCCc1ccc(F)cc1 (stereo not given) | inactive | 
Cc1cc([N+](=O)[O-])ccc1NC(=S)NC(=O)C(c1ccccc1)c1ccccc1 | inconclusive: 25.9 µM [inhibitor, single point] | 
Cc1cccc(-n2c(N)cc(=O)[nH]c2=S)c1 |  | inconclusive: -30.4% [inhibitor]
O=C(c1ccc(S(=O)(=O)N2CCCCCC2)cc1)N1CCN(c2ccccc2)CC1 | inactive | 
CCOc1ccc(CCN2C(=O)C(=O)N([C@@H](CC(C)C)CN3CCC[C@H]3CN3C(=O)C(=O)NC[C@@H]3Cc3ccc(O)cc3)C[C@@H]2Cc2ccccc2)cc1 | inconclusive: 18.4 µM [inhibitor, single point] | 
O=C(c1ccoc1)N1CCN(c2cc(-c3ccncc3)nc3cc(-c4cccc(Cl)c4)nn23)CC1 | active: 13 µM | 
Cc1ccc(S(=O)(=O)Nc2cc(Cl)c3oc4c(c3c2)C(=O)CC(C)(C)C4)cc1 | inconclusive: 29.1 µM [inhibitor, single point] | 
COc1cc(C)nc(N2CCC(C(=O)NCC3CCCO3)CC2)n1 (stereo not given) |  | inconclusive: -31.1% [inhibitor]
Nc1nonc1-n1nnc(C(=O)N/N=C/c2cccc(Cl)c2)c1CN1CCCCCC1 |  | inconclusive: -35.2% [inhibitor]
Nc1ncnc2c1ccn2[C@H]1CN(Cc2ccc(Cl)cc2)C[C@@H](CO)O1 | active: 16.4 µM | 
C1CCC(NC(=NC2C3CC4CC(C3)CC2C4)N2CCOCC2)CC1 (stereo not given) | active: 28.6 µM | 
CC(C)CCNC(=O)Cc1ccc(Nc2nc(=S)[nH]c3ccccc23)cc1 | inactive | 
O=C(c1ccc(S(=O)(=O)N2CCCCC2)cc1)N1CCCc2ccccc21 | inconclusive: 8.2 µM [inhibitor, partial curve] | 
CCOc1ccc(N(CC(=O)Nc2ccc(F)c(F)c2)S(=O)(=O)c2c(C)noc2C)cc1 | inconclusive: 8.2 µM [inhibitor, partial curve] | 
COc1cccc(CNc2nc3nc(C)c(Cl)c(C)n3n2)c1 | inconclusive: 25.9 µM [inhibitor, partial curve, poor fit] | 

SMILES | Potency | activity change, negative = growth inhibition
O=C(NC1CCCC1)c1cnn2c1NC(=C1CC1)C=C2C(F)F | inconclusive: 31.6 µM [inhibitor, single point] | 
Cc1cccc(NC(=O)CN2CCN(C(=O)c3ccc(OCc4cn5ccccc5n4)cc3)CC2)c1C | active: 18.4 µM | 
O=C(Nc1ccc(Oc2cccc(C(F)(F)F)c2)nc1)c1cccs1 | active: 20.6 µM | 
Cc1ccc2c(CN3C(=O)NC(C)(c4ccc5c(c4)OCO5)C3=O)cc(=O)oc2c1 (stereo not given) | inconclusive: 23.1 µM [inhibitor, single point] | 
COc1ccccc1-c1nnc(SCC(=O)N2CC(C)CC(C)C2)o1 (stereo not given) | inconclusive: 29.1 µM [inhibitor, single point] | 
Cc1cccc(-c2nc(Nc3cccc(O)c3)c3ccccc3n2)c1 | inconclusive: 23.1 µM [inhibitor, single point] | 
O=C(NC(=S)NCCN1CCOCC1)c1ccccc1 | inconclusive: 29.1 µM [inhibitor, single point] | 
Cn1c(=O)c(=O)n(C)c2cc(N3CCCC3)c(NS(=O)(=O)c3ccc(Cl)cc3)cc21 | inconclusive: 29.1 µM [inhibitor, single point] | 
CC(=O)c1ccc(N2CCN(CC(O)COC(c3ccccc3)c3ccccc3)CC2)cc1 (stereo not given) | inconclusive: 29.1 µM [inhibitor, single point] | 
CC(=O)c1cccc(NC(=S)NC(=O)c2ccc(Cl)cc2)c1 | inconclusive: 29.1 µM [inhibitor, single point] | 
CCn1cnc2c1c(=O)n(Cc1csc(-c3ccccc3)n1)c(=O)n2Cc1ccccc1 | inconclusive: 29.1 µM [inhibitor, single point] | 
CCCn1c(=O)[nH]c(=O)c2c1nc(-c1ccc(C#N)cc1)n2CCOC | inactive | 
Cc1ccc2cc(CCNC(=O)c3ccc(S(=O)(=O)N4CCOCC4)cc3)c(=O)[nH]c2c1 | inconclusive: 29.1 µM [inhibitor, single point] | 
Cc1ccc(C(=O)N(CCN(C)C)CC2CCCN(Cc3ccccc3F)C2)cc1C (stereo not given) | inconclusive: 29.1 µM [inhibitor, single point] | 
CCc1cc(=O)oc2c(C)c(OCC(=O)NCCCN3CCCC3=O)ccc12 | inactive | 
N#Cc1ccc2[nH]cc(C3c4cc(F)ccc4C=C(c4ccsc4)N3c3ccc(C#CCCO)cc3)c2c1 (stereo not given) | inconclusive: 18.4 µM [inhibitor, single point] | 
Cc1cc(C)c2c(n1)sc1c(=O)n(Cc3ccccc3Cl)nnc12 | inconclusive: 29.1 µM [inhibitor, single point] | 
CC(=O)c1cccc(-c2cnc3c(NC=O)cc(-c4ccc(N5CCN(C)CC5)cc4)cn23)c1 | inconclusive: 29.1 µM [inhibitor, single point] | 
Cc1ccc(C(C)C)c(OCC(=O)Nc2ccc3c(c2)nc(CN2CCCC2)n3C)c1 | inconclusive: 20.6 µM [inhibitor, single point] | 
CC(=O)Nc1ccc2nc3ccccc3nc2c1 | inconclusive: 29.1 µM [inhibitor, single point] | 
COC(=O)c1ccc(CNCC(O)COc2ccc(-c3ccccc3)cc2)cc1 (stereo not given) | inconclusive: 29.1 µM [inhibitor, single point] | 
Cc1c(Cl)cccc1NC(=O)Nc1ccccc1C(N)=O | active: 4.11 µM | 

SMILES | Potency | activity change, negative = growth inhibition
Cc1ncc2c(c1CNC(=O)/C=C/c1cccs1)CCN(C(=O)C1CCCO1)C2 (stereo not given) |  | inactive: -1.78% [at 9.04 µM]
CC(C)OP(=O)(OC(C)C)/C(C=O)=N\Nc1ccc([N+](=O)[O-])cc1 | active: 16.4 µM | 
CCOC(=O)c1c(C)sc(-c2c(-c3cc(C)ccc3C)[nH]c3c2c(=O)[nH]c(=O)n3C)c1O | inconclusive: 29.1 µM [inhibitor, single point] | 
COc1ccc(CN2CCCC(CNC(=O)c3ccc(F)cc3)C2)c(C)c1C (stereo not given) | inactive | 
CCOc1ccc(CCNC(=O)Cn2nc(C)c3c(C)n(-c4ccccc4)nc3c2=O)cc1OCC | inactive and inconclusive: 25.9 µM [inhibitor, single point] | 
CC1(C)Cc2nc3sc4c(=O)[nH]cnc4c3cc2CS1 | inconclusive: 9.2 µM [inhibitor, partial curve] | 
Cc1ccc(NC(=O)CSc2n[nH]c(-c3ccncc3)n2)cc1 | inactive | 
CC(=O)NC(Cc1ccc(F)c(F)c1)C(=O)NC1CCN(S(=O)(=O)c2ccc(C)cc2)CC1 (stereo not given) | inactive | 
COc1ccccc1OCc1ccc(C(=O)Nc2ccc(C)c(C)c2)o1 | active: 23.1 µM | 
Cc1ccc(CC(Cc2nc3ccccc3[nH]2)c2nc3ccccc3[nH]2)cc1 (stereo not given) | active: 26.6 µM | 
Cc1cccc(NC(=O)Cn2nc(N3CCN(c4ccccc4)CC3)ccc2=O)c1C | inconclusive: 29.1 µM [inhibitor, single point] | 
Cc1cccc2sc(N(CCCN(C)C)C(=O)COc3ccc(Cl)cc3)nc12 | inconclusive: 29.1 µM [inhibitor, single point] | 
C=C1C(=O)C2=CC1CCC(=O)C1(C)CCC(OC(C)=O)C(C)(C)C1CC2O (stereo not given) | active: 2.06 µM | 
CCn1c(=S)[nH]c2scc(-c3cccs3)c2c1=O | inconclusive: 29.1 µM [inhibitor, single point] | 
COc1ccc(NC(=S)N2CCc3ccccc32)cc1OC |  | inconclusive: -32.4% [inhibitor]
Cc1ccc2cc(C)c(SCC(=O)Nc3ccc(S(=O)(=O)N4CCCC4)cc3)nc2c1 | inconclusive: 18.4 µM [inhibitor, partial curve, poor fit] | 
CCCCN(CC)CCCNC(=O)c1cn(C)c2ccc(S(=O)(=O)N(C)C3CCCCC3)cc2c1=O | inconclusive: 20.6 µM [inhibitor, single point] | 
COc1ccc(Br)cc1CN(C)CC(=O)Nc1cc([N+](=O)[O-])ccc1OC | inconclusive: 20.6 µM [inhibitor, partial curve] | 
Nc1ccc(C#Cc2ccc3c(=O)c4ccccc4oc3c2)cc1 | inconclusive: 29.1 µM [inhibitor, single point] | 
Cc1ccc(-c2nc(NC(=O)c3cc(C(C)(C)C)nn3C)sc2C)cc1Cl | inconclusive: 20.6 µM [inhibitor, single point] | 
O=C(NCc1ccc(F)cc1)C1CCN(C(=O)c2cnn(-c3ccccc3)c2-n2cccc2)CC1 | inconclusive: 18.4 µM [inhibitor, single point] | 

— PubChem BioAssay AID686979 (National Center for Advancing Translational Sciences (NCATS), 2013)
